Assay results reported in the BET-seq Pho4 binding data (Le et al. 2018).
The other results are listed elsewhere or left out. Values were computed here from the reads of four pooled replicates and scatter widely.

biological target: T1, Pho4 (S. cerevisiae) (UniProt P07270); test: relative binding free energy (BET-seq); higher = weaker binding; conditions: reference: library average
T1 sequence: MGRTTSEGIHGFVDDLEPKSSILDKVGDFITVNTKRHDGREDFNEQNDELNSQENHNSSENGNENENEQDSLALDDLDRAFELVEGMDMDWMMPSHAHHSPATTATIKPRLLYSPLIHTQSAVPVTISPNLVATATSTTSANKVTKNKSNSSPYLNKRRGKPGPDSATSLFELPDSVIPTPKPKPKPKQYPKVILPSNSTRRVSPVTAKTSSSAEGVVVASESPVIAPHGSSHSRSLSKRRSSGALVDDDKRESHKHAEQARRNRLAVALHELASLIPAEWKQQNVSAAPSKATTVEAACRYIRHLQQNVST

Relative binding free energy, 0.22 kcal/mol:
GCCTTCACGTGTAGGG
CTAATCACGTGTATAT
ATTGTCACGTGGAAAT

Relative binding free energy, -0.08 kcal/mol:
ATTGTCACGTGGGTGA
AAACGCACGTGTGGTG
TGCGACACGTGGGTAT

Relative binding free energy, 0.14 kcal/mol:
TGTTTCACGTGTATGT
AGTTGCACGTGAGATG
CTCGGCACGTGAGTAG

Relative binding free energy, -0.05 kcal/mol:
TTTGACACGTGTTCGG
ATCTGCACGTGGGGCA

Relative binding free energy, 0.11 kcal/mol:
GTTCTCACGTGGGATA
GTAGTCACGTGGTGTC
AAAGGCACGTGTATAG
GATGTCACGTGGAGTC
TAGTCCACGTGGATGA

Relative binding free energy, 0 kcal/mol:
GGCGGCACGTGGATTG
CGAGGCACGTGTTGCG
GGGGGCACGTGACTTA
CCAGTCACGTGGGGGA
GGCGACACGTGCGGGG

Relative binding free energy, -0.16 kcal/mol:
TAGGGCACGTGCACGT
AAAGGCACGTGGTGCA
ATTAGCACGTGGGGAC

Relative binding free energy, -0.12 kcal/mol:
TTAGGCACGTGTCGGT
CGGGCCACGTGGGGTC
TTGAGCACGTGTCGGG
CATTCCACGTGGGGGG
GCAGACACGTGGTGGG
AGAGGCACGTGTTGTC

Relative binding free energy, -0.14 kcal/mol:
GGGGGCACGTGTAGAG

Relative binding free energy, -0.21 kcal/mol:
TGGAGCACGTGCGTGT
CTGGCCACGTGGAGGG

Relative binding free energy, 0.44 kcal/mol:
TCGTTCACGTGAGGAT
AGACTCACGTGGAAGG

Relative binding free energy, 0.06 kcal/mol:
TGTAACACGTGTCTAG
CTGAGCACGTGAGGTG
TCAGGCACGTGTTATG
AGGTGCACGTGAGGAA
CTGTGCACGTGCGATT
AGAGGCACGTGATGTC
TTTTGCACGTGTCGTA
GAAGGCACGTGTGATA
ATGATCACGTGGTTCT

Relative binding free energy, 0.23 kcal/mol:
GGAGTCACGTGTTTCA
GGTATCACGTGTGACG

Relative binding free energy, -0.27 kcal/mol:
TAAGGCACGTGGAGTG

Relative binding free energy, -0.11 kcal/mol:
GTCAGCACGTGGTCGG
TTCGGCACGTGGTTGT

Relative binding free energy, 0.08 kcal/mol:
AATCACACGTGGTTAG
ATTTGCACGTGACATT
AATGACACGTGTGGTA
AGCTGCACGTGGAAGG

Relative binding free energy, 0.19 kcal/mol:
TTCTTCACGTGTAATT
TCGTACACGTGATAGG
TCTTGCACGTGATGGG
CGGTACACGTGGAATG
TGTTTCACGTGTCATT

Relative binding free energy, -0.17 kcal/mol:
TAGGGCACGTGGCGTT
TGAAGCACGTGGCTGT
AGGGCCACGTGGTGAT

Relative binding free energy, -0.03 kcal/mol:
TGTGTCACGTGGGACT
AGGTACACGTGGTCTG
AAGGGCACGTGTTAGA
TGGTGCACGTGTTTAG

Relative binding free energy, 0.34 kcal/mol:
GGATGCACGTGACTTT

Relative binding free energy, -0.23 kcal/mol:
CGGGGCACGTGGGCGG

Relative binding free energy, 0.32 kcal/mol:
ATATTCACGTGAGTGG
AAGATCACGTGATGAG

Relative binding free energy, 0.33 kcal/mol:
TCTTACACGTGAGGTA
GGGAACACGTGTAAGT
ATTCTCACGTGAGAGT

Relative binding free energy, 0.09 kcal/mol:
GAGTCCACGTGTTGTG
TATTCCACGTGTGCGG
TTCGTCACGTGTCTGG
TGAGTCACGTGGGATT
TCTGTCACGTGGAAGT
GCTGACACGTGGGTGA
TGATTCACGTGGTATA
GTGGACACGTGTATGT
CCTTTCACGTGGGGTG

Relative binding free energy, -0.04 kcal/mol:
TATAACACGTGTGTGA
ATTCGCACGTGGTAAG
ATGGTCACGTGCGATT
TCGTCCACGTGGTGGT
TTGTGCACGTGTGCAG
GGCGGCACGTGACGGT
TCCTGCACGTGGTTGT
AAGGCCACGTGGATGG
TGCTCCACGTGGTTGG

Relative binding free energy, 0.12 kcal/mol:
TCGGTCACGTGTTGAT
TTCTTCACGTGTCGTA
TTTGTCACGTGATGCA
TATATCACGTGTCATT
TTAGGCACGTGAGGAC

Relative binding free energy, -0.02 kcal/mol:
ACAGGCACGTGTAGTG
ATCAGCACGTGTGCGG
TGTTACACGTGGGTGT
GGTGCCACGTGTAAGT
GGTTGCACGTGCTTGC
GACGGCACGTGGTAGG
TTGGACACGTGTGCGA
TTTTCCACGTGGAGGG
GTGCGCACGTGTGATG

Relative binding free energy, 0.1 kcal/mol:
AAAAGCACGTGTATGG
GGGTGCACGTGTCGAA
ACAGTCACGTGTGGGA

Relative binding free energy, -0.15 kcal/mol:
CCTGGCACGTGTGTGG
TTCAGCACGTGGGCGG

Relative binding free energy, 0.35 kcal/mol:
ACTGTCACGTGAGATG
AAGTTCACGTGTATGA
GGTTCCACGTGAGTAG

Relative binding free energy, -0.18 kcal/mol:
TTTGCCACGTGGGTTG
GTGACCACGTGGGGCT

Relative binding free energy, 0.13 kcal/mol:
CGGATCACGTGGTGGG

Relative binding free energy, 0.49 kcal/mol:
TATTACACGTGAATGC

Relative binding free energy, -0.13 kcal/mol:
AGGTACACGTGGTGCA
GGAAGCACGTGGTAGT

Relative binding free energy, -0.3 kcal/mol:
CGCTGCACGTGGGGTG
AGAGGCACGTGGCATG

Relative binding free energy, 0.31 kcal/mol:
AAATTCACGTGAGATT
TGGTTCACGTGGCGGA
GTGAGCACGTGAGCAG
GGTGGCACGTGAAAAA
AGTATCACGTGTAGAT

Relative binding free energy, 0.16 kcal/mol:
TATTTCACGTGTTTGC
GTATGCACGTGAGGTG
TTTAACACGTGTGGAG

Relative binding free energy, 0.15 kcal/mol:
TCTGTCACGTGGTAGC
TCAGTCACGTGTTGGG
AGGTACACGTGATGAG
TAATGCACGTGAGTCT

Relative binding free energy, 0.2 kcal/mol:
GTGGTCACGTGTGGTA

Relative binding free energy, -0.24 kcal/mol:
GAAGGCACGTGGGCTT

Relative binding free energy, 0.28 kcal/mol:
ATCTTCACGTGGTTTG
CTAAACACGTGATGGG

Relative binding free energy, -0.01 kcal/mol:
GTATACACGTGCAGTT
GTGGACACGTGGTTGG
TTGTGCACGTGACGAT

Relative binding free energy, 0.05 kcal/mol:
GGGCCCACGTGAGGGG
TGTACCACGTGATTGT
TACTACACGTGTGTTT
CATTTCACGTGGGGTC
TGGGCCACGTGTGGCG
CCGGGCACGTGATAGG

Relative binding free energy, -0.07 kcal/mol:
TCAAGCACGTGGTAGT
TTAAGCACGTGGTTAT
ATCGGCACGTGGTTTG
GGTCACACGTGCGTGG
TTATACACGTGGTTTC
TACCGCACGTGGTGTT
AATGTCACGTGGGGCG

Relative binding free energy, 0.24 kcal/mol:
ATTTTCACGTGGGTAA
ATTTTCACGTGCGGTA
TTAGTCACGTGTCAGC
TTCAACACGTGAGGGT

Relative binding free energy, -0.19 kcal/mol:
TCCGGCACGTGGTGTA
AGTACCACGTGTGGTG
TTGGGCACGTGCGCAG
CAGGGCACGTGGTGGC

Relative binding free energy, 0.46 kcal/mol:
GTGTTCACGTGATTCG
TACTTCACGTGATGGA

Relative binding free energy, 0.03 kcal/mol:
TGTTACACGTGCGGGT
TTGGTCACGTGGCGTC

Relative binding free energy, 0.17 kcal/mol:
GGTGACACGTGTAAAT
TTTGCCACGTGACTGG
TCGAGCACGTGAGGAG
TCGTACACGTGTGAGT
ATAGTCACGTGAGGGT

Relative binding free energy, 0.01 kcal/mol:
GGTCGCACGTGCAGTT
TGTGTCACGTGCAAAG
TGAGTCACGTGGGCGC
ATCGCCACGTGTGGTA

Relative binding free energy, 0.25 kcal/mol:
TTCGTCACGTGAAATT
GGTTACACGTGTTTTG
GTTATCACGTGTTGCG
TGAGCCACGTGGATTT
CATTGCACGTGTAGGC

Relative binding free energy, 0.3 kcal/mol:
TAAGTCACGTGACTGT
GCACTCACGTGGTGGA

Relative binding free energy, -0.25 kcal/mol:
TAGTGCACGTGGTCAT
CTCGGCACGTGGGTGA
CGGGCCACGTGGGGGG

Relative binding free energy, 0.27 kcal/mol:
TTGGTCACGTGAACTG
TGGGACACGTGGAAAG

Relative binding free energy, -0.22 kcal/mol:
CGGGCCACGTGGTGTG

Relative binding free energy, 0.04 kcal/mol:
CAGGTCACGTGTTTGG
TGTTCCACGTGTTGTG
CGTGACACGTGGAGTT
AGGCACACGTGTGGAG

Relative binding free energy, 0.38 kcal/mol:
TTCTTCACGTGGAGTT

Relative binding free energy, -0.1 kcal/mol:
TTGCGCACGTGGATGA

Relative binding free energy, 0.36 kcal/mol:
ATATTCACGTGAGATG

Relative binding free energy, -0.2 kcal/mol:
TACGGCACGTGGGGAA

Relative binding free energy, 0.02 kcal/mol:
GGAAACACGTGGTGTC
GAGCGCACGTGGATTG
TGTTCCACGTGGTGTC
TGGTGCACGTGTTTCT
TCTAGCACGTGTAGAG
TGAGTCACGTGGTGCC
TATATCACGTGCGTGG

Relative binding free energy, 0.45 kcal/mol:
TTATTCACGTGGAATT

Relative binding free energy, 0.18 kcal/mol:
GTATACACGTGCTAAG
GTAGGCACGTGAGGCT
TGCTTCACGTGGGTAT
ATTATCACGTGGAGGT
GGGATCACGTGTTATT
GGAGTCACGTGTTTAG
CGTTGCACGTGAAATG

Relative binding free energy, 0.26 kcal/mol:
CCGTTCACGTGTGTGG
ATTAACACGTGTGATC
GTTTACACGTGTTTCG
TCAGACACGTGTGTAT
CGTTTCACGTGAGGAT
TATTTCACGTGGTGTC

Relative binding free energy, 0.07 kcal/mol:
TTATTCACGTGGGGCC
GTTGGCACGTGTTATT
GGAATCACGTGGCGTG
TTATACACGTGGCATT
CGTGTCACGTGGAGGG

Relative binding free energy, -0.06 kcal/mol:
AGTGGCACGTGTTCGA
TTTAGCACGTGCTTAG
GGGGGCACGTGTGCTA
ACGGGCACGTGTTTGA
GGTAGCACGTGGAGGC
CTAGTCACGTGTTTGG
TGGGCCACGTGTCTGT

Relative binding free energy, 0.21 kcal/mol:
GTTTGCACGTGACGCT
ATGTACACGTGATTCG
GTAATCACGTGTTGCT
